Assay results taken from publication PMC4525183, “Snf1/AMP-activated protein kinase activates Arf3p to promote invasive yeast growth via a non-canonical GEF domain” (Nature Communications, 2015).
Results are given in words; binding and its absence hold for the method and conditions named. For some assays here: Binding seen in cells or lysates may run through a third protein. Some binding calls cover weakened binding; strength is not graded here. Sequences can lack the tags named with a protein.

Columns and labels:
GST-Snf1 (S. cerevisiae) = molecular target: T1, GST-Snf1 (S. cerevisiae) (UniProt P06782); test: pull-down; GST fusions on glutathione-Sepharose 4B beads, His-tagged protein in solution (His-Arf3 loaded with GDP or GTPγS); 50 mM Tris-HCl pH 7.5, 150 mM NaCl, 1% Triton X-100, 1 mM DTT, 10 mM MgCl2; 1 h, 4 °C; anti-His blot; both purified
T1 sequence: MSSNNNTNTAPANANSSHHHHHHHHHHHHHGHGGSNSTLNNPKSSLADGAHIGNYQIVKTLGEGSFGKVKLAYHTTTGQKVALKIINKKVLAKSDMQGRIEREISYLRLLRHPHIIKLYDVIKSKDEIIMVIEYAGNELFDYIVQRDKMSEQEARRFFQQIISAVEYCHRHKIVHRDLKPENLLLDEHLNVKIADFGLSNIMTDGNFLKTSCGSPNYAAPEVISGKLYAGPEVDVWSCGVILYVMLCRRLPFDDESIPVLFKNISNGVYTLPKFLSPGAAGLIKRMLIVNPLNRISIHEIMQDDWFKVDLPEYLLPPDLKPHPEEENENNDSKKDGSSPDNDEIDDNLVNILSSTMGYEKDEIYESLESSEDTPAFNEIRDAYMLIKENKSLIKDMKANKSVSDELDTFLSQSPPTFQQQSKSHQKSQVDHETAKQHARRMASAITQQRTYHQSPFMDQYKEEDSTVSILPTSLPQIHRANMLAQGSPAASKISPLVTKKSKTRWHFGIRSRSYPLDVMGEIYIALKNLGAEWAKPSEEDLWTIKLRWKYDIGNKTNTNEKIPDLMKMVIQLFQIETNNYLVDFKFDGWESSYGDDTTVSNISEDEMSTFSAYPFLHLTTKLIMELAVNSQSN

[1] = molecular target: T2, GST-Snf1-C (a.a. 311–633) (S. cerevisiae, UniProt P06782 311-633); test: pull-down; yeast cells lysed without or with EDTA; proteins of the lysate precipitated by GST-Snf1-C; blot for Arf3p; only the target purified
T2 construct: Snf1p, S. cerevisiae, C-terminal regulatory domain, a.a; 311–633; Vector pGEX4T-1; also called C-terminal regulatory domain of Snf1p; source: E. coli BL21 (DE3), purified (glutathione-Sepharose 4B)
T2 sequence (looked up): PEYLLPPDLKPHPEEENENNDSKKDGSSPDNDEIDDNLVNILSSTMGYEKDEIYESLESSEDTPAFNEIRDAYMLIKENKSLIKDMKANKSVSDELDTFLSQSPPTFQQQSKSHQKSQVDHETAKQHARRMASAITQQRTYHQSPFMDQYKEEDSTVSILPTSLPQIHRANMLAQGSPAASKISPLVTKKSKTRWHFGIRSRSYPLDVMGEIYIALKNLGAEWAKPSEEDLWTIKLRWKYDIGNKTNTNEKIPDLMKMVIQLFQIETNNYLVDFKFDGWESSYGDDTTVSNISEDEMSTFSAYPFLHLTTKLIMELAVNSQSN

Snf1p-HA (S. cerevisiae) = molecular target: T3, Snf1p-HA (S. cerevisiae) (UniProt P06782); test: co-IP; lysates of Σ1278b yeast co-expressing Arf3p and Snf1p-HA; anti-HA agarose, 4 °C, 2 h; PBS with 1 mM DTT, 5 mM MgCl2; washes with 0.5% Triton X-100; blot for Arf3p; cells in YPD or after 2 h of glucose depletion (YP)
T3 sequence: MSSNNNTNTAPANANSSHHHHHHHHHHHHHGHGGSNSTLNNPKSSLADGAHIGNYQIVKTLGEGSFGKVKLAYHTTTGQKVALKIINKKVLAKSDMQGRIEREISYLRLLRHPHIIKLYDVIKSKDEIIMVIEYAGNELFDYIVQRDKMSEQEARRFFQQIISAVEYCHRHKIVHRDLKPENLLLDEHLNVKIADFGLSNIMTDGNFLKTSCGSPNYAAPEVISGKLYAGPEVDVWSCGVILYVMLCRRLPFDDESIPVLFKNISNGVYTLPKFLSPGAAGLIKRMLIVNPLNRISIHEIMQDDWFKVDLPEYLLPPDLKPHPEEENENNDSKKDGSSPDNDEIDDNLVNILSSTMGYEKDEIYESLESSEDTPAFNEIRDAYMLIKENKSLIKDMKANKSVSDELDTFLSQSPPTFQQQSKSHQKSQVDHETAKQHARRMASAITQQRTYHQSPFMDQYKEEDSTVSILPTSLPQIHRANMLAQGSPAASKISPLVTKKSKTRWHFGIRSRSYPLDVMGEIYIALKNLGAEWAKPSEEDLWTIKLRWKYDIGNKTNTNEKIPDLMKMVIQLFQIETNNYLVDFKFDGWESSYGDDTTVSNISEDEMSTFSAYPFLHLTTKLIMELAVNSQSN

B1: His-Arf3^T31N (natural protein, S. cerevisiae, UniProt P40994 1-183, looked up)
chain: MGNSISKVLGKLFGSKEMKILMLGLDKAGKNTILYKLKLNKIKTSTPTVGFNVETVTYKNVKFNMWDVGGQQRLRPLWRHYFPATTALIFVIDSSARNRMEEAKEELYSIIGEKEMENVVLLVWANKQDLKDAMKPQEVSDFLELEKNLKNQPWCVIGSNALSGQGLVEGLSWISNNTNVPKK
notes: Arf3p, S. cerevisiae; T31N; plasmid pET32a-ARF3 (T31N); pET32a usually adds thioredoxin, His and S tags before the insert
**Q.** For B1, which binding (GST-Snf1 (S. cerevisiae)) is on record?
**A.** Its binding is “binds”.

B2: Arf3p (wild type, in yeast) (protein, UniProt P40994 1-183)
chain: MGNSISKVLGKLFGSKEMKILMLGLDKAGKTTILYKLKLNKIKTSTPTVGFNVETVTYKNVKFNMWDVGGQQRLRPLWRHYFPATTALIFVIDSSARNRMEEAKEELYSIIGEKEMENVVLLVWANKQDLKDAMKPQEVSDFLELEKNLKNQPWCVIGSNALSGQGLVEGLSWISNNTNVPKK
**Q.** What does the source list for B2?
**A.** binding [1]: binds; binding (Snf1p-HA (S. cerevisiae)): binds

B3: dominant-negative Arf3p^T31N (in yeast) (protein, UniProt P40994 1-183)
chain: MGNSISKVLGKLFGSKEMKILMLGLDKAGKNTILYKLKLNKIKTSTPTVGFNVETVTYKNVKFNMWDVGGQQRLRPLWRHYFPATTALIFVIDSSARNRMEEAKEELYSIIGEKEMENVVLLVWANKQDLKDAMKPQEVSDFLELEKNLKNQPWCVIGSNALSGQGLVEGLSWISNNTNVPKK
**Q.** For B3, which binding (Snf1p-HA (S. cerevisiae)) is on record?
**A.** The binding was “binds”.

B4: His-Arl1^T32N (protein, UniProt P38116 1-183)
chain: MGNIFSSMFDKLWGSNKELRILILGLDGAGKNTILYRLQIGEVVTTKPTIGFNVETLSYKNLKLNVWDLGGQTSIRPYWRCYYADTAAVIFVVDSTDKDRMSTASKELHLMLQEEELQDAALLVFANKQDQPGALSASEVSKELNLVELKDRSWSIVASSAIKGEGITEGLDWLIDVIKEEQL
**Q.** B4 was tested. Which binding (GST-Snf1 (S. cerevisiae)) did it give?
**A.** Its binding is “no binding”.
